Data from the supplement of paper PMC12632987.
Over roughly 4,500 sequences, “median log2 fold change of GCK-ALFA target abundance (FLAG IP / Myc IP barcode read proportion)” has its median near 0.078; the lowest 2% begin near -0.6. The list shows a part of the results.

B1: GBRAP_137_3665 (protein)
chain: MKVKVEVKLEGNFAEITIKADTKELMEKAEDIIDEAAKETGVAYAIHIDEENKEVTVDLYGEREKLKKFIERVVKKLSEIADVEYTLEEDGKVTKEFLKK
B2: GBRAP_11_2894 (protein)
chain: KLEKLEEAAELAKEVIELLEKLKEEGVDDEELREKLREKAEKLLELAKESLDESDVELVKEIIELVEKAEEDPENAEQYIDEALALARTLLGQILLEIEE
B3: GBRAP_160_4788 (protein)
chain: SERVERASKLLREELEEAIELSKGETTEERVNIFDVEIGSAIMELIEEGLLNDEEEEVLARVRDELVATIRANPDLTEEELRALAEEAVERFRRELEKLE
B4: GBRAP_95_7014 (protein)
chain: EDDQLAADSAAEVLETAVDLGDEEAARRAARRLVAILVENPAVKFPADISPAAARVILEEARRELDPATALAIARRLEADAADPAVKALAAAAAAEIEAA
B5: GBRAP_137_3652 (protein)
chain: MTVNIDVEIDGDFASITIKADTKELAELSADILYETAKKHGVAIAISLDLENKTVNADLLGEKEKIRAAIKDFVAELSKKADVNLTLTEDGKTTKTTIKK
B6: GBRAP_117_2576 (protein)
chain: MMSKEEMKKKVYETVKKVIEKLKEAEKLSPEEREKVLKELKEEMKKVVREALEILSEEEVEEIVEEALLEADAKTYFEAESIFLEALEEVRREREEEERR
B7: GBRAP_160_4594 (protein)
chain: SEETEKLIKKIKEIVEEAKEMIKGESHEERLTVIRVMVGDILLELSSSSIVSDELEEKADELGRELIETVEKNKDLTEEEIIELINEMEEKIIKAIEEES
B8: GBRAP_160_4375 (protein)
chain: SEELKELIKEIEELKKEFEELAKDLSPEEVKILAKGVLSEIAALVFENEAVSEETKDKIMEIIDKALEELDKLKDASPEEIVAVTTEAVNEIIELIKKEI
B9: GBRAP_125_3005 (protein)
chain: DLEVVVEAIRRLLERAGEDESLIEEAARLAREHGGKQTLIAVAYALGDEELAELLERLSEEQVVEVARRLLAYLEAHPDATLEEVLAKWRELAEEALAAA
B10: GBRAP_117_2579 (protein)
chain: SEEKERVKERLRETIREAGKRIEAAKSLSPEERQKVLEEVRKEIAEAVREALKVLSREEVLDIVEETLLEFNAETYFEISSFVADAIEEIREEEEERRRR
B11: GBRAP_35_5601 (protein)
chain: ETDEFAAESLIDLIEALIEGVPEEDVETLAAIGNTLAKFAKELIEDLKNNKELLKKLAEALKKLIEALKKHHGDNPLMQELIKKFEELLKEAEKKIEEIE
B12: GBRAP_166_4982 (protein)
chain: SQEELVEELKKYIDEQAEKAKTANAEERQELVAEVAEKIAEAREEGLSDEDLRELIRYALEQFAKVGVPVSAVEGALSILADLDEEEIDILIEARDEVLA
B13: GBRAP_52_5955 (protein)
chain: MRERLRELVEELIELVKAGKLEEARELAREIAETLNDEELRLFAEEFARRAREASPEDWDAIFKAAEIVADELLEEGRDPALAGELLARVAAAIYEKEQA
B14: GBRAP_166_4962 (protein)
chain: KQEELVERLKKLIKEKAEKAKTATPEEKLELLAEVAEELGKAKEEGLSKESLRELIRHTLEEFSAVGLTLSQVEGALTILANLDEEEIDILEEAIKEVKA
B15: GBRAP_160_4578 (protein)
chain: SEKEKKAIEILNEATEEVLSLVDEVSLEELINFTEVEFGSAILELLDEGLISWETADKMMEIVDELVATLKANPNLTPEERKALIEEAKKKMEEAIKEEY
B16: GBRAP_74_6508 (protein)
chain: EEELLAALRAAAAAKDARAVAELLREIVKTGSLEAIEEAARIVVAFVDAHLDELSPEELEALADALAELADKLMELGGDSDVVRAVVAAAVRLEERLAAL
B17: GBRAP_128_3415 (protein)
chain: PDAALVARTRELLDAMLTADPETARALAEEIVALIMEADLETAEAIGEVILARLPQLTAEQLEILADAIRAALPAATPEKAEILADVLVEALNEAEEKEE
B18: GBRAP_14_3854 (protein)
chain: MEKLIAAVKKTAEAAIEFAKELLPEHAEEVGKKIKELAEKIIEKIKKENLNKEEVAELIRKMAEELGKFIKEKGYASDEEIAAFKAFIENEALLELEKVE
B19: GBRAP_160_4110 (protein)
chain: SEAAKKLIEDLKEEAEEVLSLAPEVSNEEFVNDFEVEFGSVILDAMEELGISMETADELLEIVDKAAEELRKAGDAPLEEKEKIVEEAIEEMKKVVEKHA
B20: GBRAP_78_6725 (protein)
chain: ELEELIDKAIEELNKAAREAQKLPEEAANEILGLLVDAMSDLVEAEENGGDLEELERAKKYVEEALKLAEKLKSKEAEPLIKELKKALELLEKAIKLKKE
B21: GBRAP_128_3410 (protein)
chain: SMEEKVEEAKELLEKMLTADEEERRKLARELAELLLESDLETVEKIVEVILEMLPKFTAEQLEILADELEKRLDEFSPEKQELVSEVIVEALNEAEELEE
B22: GBRAP_11_2838 (protein)
chain: KKEELKELAERAEELARELERLIASGAPTEEELRELLERAKEFLKEVKKSGDKSAAKVAEIAVEEIEEAIANPETQQQHLENALAAFRVLEGLYLLELEE
B23: GBRAP_80_6857 (protein)
chain: AEAELEKALAELEKLLPEVAEDAKEIVKLAREMGVPDEEIAELMKALAELAKVDPEKAAKLIKELLEDLKELKEEGDSERALAVIRGYAGEALMEAEELE
B24: GBRAP_150_3898 (protein)
chain: SLELALLLAETALDLVEGILDGEYSLLPHAIKLLKKLVEELKEIDKELAEKAKKALELVEEAKKLIEEGGDPEEVQKLLEEALKILKELVKEIKKKIEEE
B25: GBRAP_125_3026 (protein)
chain: SEEELVEDLGRIAAALGFSEGDVEELMREARRHGIKGAFIALALAEGLEEAAELAEKLSEEEVKEVVREVAAWLEAHPDATPEEVKEKILEVLKKAVAKS
B26: GBRAP_160_4755 (protein)
chain: KEELKKLKKEIKEIFEEYKEILKEVPKEEAPTVIRGAAGEVLMEVMSSDAASDELEEEIGKILDEAVKEAEANKDKPVEYHIEILEKAEKEILELIEKEI
B27: GBRAP_26_5423 (protein)
chain: LEEAVRAALDRLGAVLDALLDPETAAAARAEATDLLLEMDEKVEEEDLSEEEVEALAAEVLEEFAEALDELGVPADARARLVAALQEELDRLIAAWKASR
B28: GBRAP_160_4154 (protein)
chain: SAEIKKLIEEIKKIAEEAIKMMEGETPEEAKTIAKVALGEMLLLVEENPAVSEETEEKIGKIVDETEAKLDANPDLTVEEVKELLKEAEKKIVEILEKEA
B29: GBRAP_78_6614 (protein)
chain: EKKEKIEELLEKAAELLREVIKKSPELANEAADALVLVGTAIYMVTTGSESKEELEETVKEAAKELEELLKKAKDAKEEVQEKVKKALELVKEALKLLKE

The binders below were run against GABARAP, O95166 (assay: median log2 fold change of GCK-ALFA target abundance (FLAG IP / Myc IP barcode read proportion) (log2 ratio); each designed protein is fused to an ALFA-tag nanobody in HEK293 cells to bring the named protein to FLAG-tagged glucokinase (GCK); Myc marks an untargeted standard; higher = target protein stabilised (more abundant)). Conditions: target protein: 3xFLAG-MCP-GCK-ALFA reporter; HEK293 landing pad (RPLP).
Sequence of GABARAP, O95166 (O95166 whole entry, the tested form may be a part): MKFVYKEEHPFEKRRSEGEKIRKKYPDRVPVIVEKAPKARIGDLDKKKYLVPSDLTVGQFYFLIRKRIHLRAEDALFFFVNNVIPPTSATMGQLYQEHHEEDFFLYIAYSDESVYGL
Description: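 LABEL-seq trans screen in HEK293 landing-pad cells. Each de novo designed 100-aa effector handle, binding the indicated effector (E3 ligase, DUB or autophagy protein), is fused to a constant NbALFA target handle and induced with 2 ug/mL doxycycline. A FLAG-MCP-GCK-ALFA target and a Myc-MCP standard reporter were transfected, and after 48 h circRNA barcodes were recovered by anti-FLAG and anti-Myc IP and sequenced. The value is the median across barcodes (at least 3 per design) of log2(FLAG/Myc read-proportion ratio), with the two transfection replicates pooled. Negative values mean degradation and positive values mean stabilisation of the target.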

Binder | median log2 fold change
B1 | 0.368
B2 | 0.331
B3 | 0.267
B4 | 0.296
B5 | 0.0956
B6 | 0.21
B7 | -0.49
B8 | 0.194
B9 | -0.325
B10 | 0.0969
B11 | -0.269
B12 | 0.0312
B13 | -0.0212
B14 | 0.0899
B15 | -0.487
B16 | 0.0957
B17 | 0.132
B18 | 0.381
B19 | -0.205
B20 | 0.105
B21 | 0.163
B22 | -0.117
B23 | 0.252
B24 | 0.359
B25 | 0.0798
B26 | -0.0479
B27 | -0.0377
B28 | 0.135
B29 | 0.25
